Measurements published in article PMC6555816, “Tau local structure shields an amyloid-forming motif and controls aggregation propensity” (Nature Communications, 2019).

Target: the molecule itself
Test: ThT fluorescence aggregation assay + transmission electron microscopy; self-assembly into amyloid fibrils: 4.4 µM tau or tau RD with 4.4 µM heparin, 25 µM ThT, 1x PBS with 5 µM β-mercaptoethanol, room temperature; fibrils confirmed by TEM

B1: full-length (FL) P301L tau (2N4R; […]) (natural protein)
chain: not shown
notes: tau, human, 2N4R isoform, […], disease-associated mutation P301L; also called mutant P301L tau; source: E. coli BL21-Gold (DE3), purified (Ni-NTA, HiTrap SP HP, Superdex 200)
binding result: binds
